# In all, about 360,000 compounds went through this assay and about 25,000 (6.9%) were called active. Inconclusive results, whose numbers are uncertain, are shown with a selection of clear calls. Calls come from the whole dose curve; as a rule, active = well fitted inhibition curve with a large enough effect; inconclusive = small, poorly fitted or top-dose-only effect; inactive = flat fitted curve, though single readings scatter. Where the call is inconclusive, the potency comes from a doubtful curve fit.
# Target: Luciferin 4-monooxygenase (Photinus pyralis) (UniProt P08659)
# UniProt P08659, sequence (P08659 whole entry, looked up): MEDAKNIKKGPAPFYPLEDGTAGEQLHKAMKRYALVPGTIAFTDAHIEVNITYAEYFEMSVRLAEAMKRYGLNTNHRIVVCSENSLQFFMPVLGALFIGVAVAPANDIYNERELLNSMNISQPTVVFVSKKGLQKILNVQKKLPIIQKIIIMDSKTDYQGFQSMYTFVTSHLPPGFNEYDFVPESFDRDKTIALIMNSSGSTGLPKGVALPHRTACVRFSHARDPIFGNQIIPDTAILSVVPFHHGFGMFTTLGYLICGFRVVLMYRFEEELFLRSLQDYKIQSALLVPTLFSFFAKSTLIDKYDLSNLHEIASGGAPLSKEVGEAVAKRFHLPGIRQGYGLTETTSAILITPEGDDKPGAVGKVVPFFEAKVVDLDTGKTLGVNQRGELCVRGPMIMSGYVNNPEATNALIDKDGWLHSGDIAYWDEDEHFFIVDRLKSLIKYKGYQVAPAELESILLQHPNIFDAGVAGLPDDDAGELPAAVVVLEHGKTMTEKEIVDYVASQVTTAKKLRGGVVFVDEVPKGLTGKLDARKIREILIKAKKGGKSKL
# Assay: qHTS profiling assay for firefly luciferase inhibitor/activator using purifed enzyme and Km concentrations of substrates (counterscreen for miR-21 project); note: nearly all actives have a fitted effect of over 55% in size;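 for activity change, negative = inhibition: plate controls were vehicle for no effect and reference inhibitor for full effect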
# Conditions: purified FLuc, luminescence inhibition; activity change, negative = inhibition: at 57.5 µM (top of the series)
# Method in brief: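 Purified P. pyralis luciferase (10nM final) with 10uM D-luciferin and 10uM ATP (Km levels) in 50mM Tris acetate pH 7.5, 10mM Mg acetate, 0.01% Tween-20, 0.05% BSA; qHTS 6-point titration, ~60 µM downward; luminescence read.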
# Potency is the fitted concentration of half-maximal effect; tags give direction and shape of the fitted curve.
SMILES,Potency,"activity change, negative = inhibition"
O=C(CSc1nnc(NC(=O)c2ccccc2Cl)s1)NC1CC1,active: 12 µM,–
Cc1ccc(/C=C2\SC(=S)N(CCC(=O)NNC(=O)c3cccnc3)C2=O)cc1,"inconclusive: 5.36 µM [inhibitor, full curve]",–
O=C(O)c1ccccc1SCc1csc(-c2ccccc2)n1,"inconclusive: 26.9 µM [inhibitor, single point]",–
O=C(NCCc1csc(-c2cccnc2)n1)c1ccco1,–,inactive: -1.14%
OCC(O)C1OC(Nc2ccc(Cl)cc2)C(O)C1O (configuration not stated),–,inactive: -4.59%
CSc1ccc(-c2nc(CSCC(=O)NC3CC3)c(C)o2)cc1,"inconclusive: 21.3 µM [inhibitor, single point]",–
Cc1cn(C)c(CC(=O)NCc2ccc(Cl)cc2)c1C(=O)O,"inconclusive: 23.9 µM [inhibitor, partial curve, poor fit]",–
CCCc1ccc(C(=O)CCC(=O)O)cc1,active: 23.9 µM,–
CC(CCc1ccccc1)NC(=O)C(=O)c1c[nH]c2ccccc12 (configuration not stated),"inconclusive: 37.9 µM [inhibitor, partial curve, poor fit]",–
Cc1cccc(OC(=O)CSc2nnc(-c3ccc4c(c3)OCO4)o2)c1C,–,inactive: -2.23%
Cc1ccc([C@@H]2[C@@H]3C(=O)N(C)C(=O)[C@@H]3[C@]3(Cc4ccccc4)C(=O)N(Cc4ccccn4)CC(=O)N23)o1,–,inactive: 2.99%
COc1ccc(CNC(=O)c2noc3c2CCCCC3)cc1,"inconclusive: 33.8 µM [inhibitor, single point]",–
CSc1ccc(/C=C/C(=O)OCC(=O)NC2CCS(=O)(=O)C2)cc1 (configuration not stated),"inconclusive: 21.3 µM [inhibitor, single point]",–
CCCOC1CCCN(C(=O)CCc2nnc(-c3ccc4c(c3)OCO4)o2)C1 (configuration not stated),"inconclusive: 23.9 µM [inhibitor, partial curve]",–
COc1ccc(NC(=O)c2ccc(-c3ccc([N+](=O)[O-])cc3)o2)cc1OC,"inconclusive: 19 µM [inhibitor, partial curve]",–
CCOC(=O)c1cnn(-c2ccc(C(F)(F)F)cn2)c1N,active: 10.7 µM,–
O=C(NCCCn1ccnc1)c1cc(-c2cccc(O)c2)on1,"inconclusive: 26.9 µM [inhibitor, single point]",–
Nc1nc(N)c(N=O)c(OCC2CCCCC2)n1,"inconclusive: 37.9 µM [inhibitor, single point]",–
Cc1cc(C)cc(N2Cc3ccccc3C2)c1,–,inactive: -3.9%
Cc1ccc(Nc2ccccc2N)cc1,"inconclusive: 26.9 µM [inhibitor, single point]",–
O=C(CCCN1C(=O)/C(=C/c2cccs2)SC1=S)Nc1cccc(C(=O)O)c1,"inconclusive: 37.9 µM [inhibitor, single point]",–
O=C(CN1C(=O)CSC1=O)NCc1ccccc1,"inconclusive: 37.9 µM [inhibitor, partial curve, poor fit]",–
O=C1NC(=Nc2ccccc2)S/C1=C\c1cccnc1,"inconclusive: 37.9 µM [inhibitor, partial curve, poor fit]",–
Cc1ccc(OCC(=O)n2nc(C)cc2C)c(C)c1,"inconclusive: 33.8 µM [inhibitor, single point]",–

SMILES,Potency,"activity change, negative = inhibition"
COc1ccc(NC(=O)c2cccc(N3CCCS3(=O)=O)c2)c(OC)c1,"inconclusive: 21.3 µM [inhibitor, partial curve]",–
COc1cccc(NC(=O)CCc2c(C)nn(-c3ccc(N4CCOCC4)nn3)c2C)c1,"inconclusive: 37.9 µM [inhibitor, single point]",–
CCOC(=O)/C=C1\SCC(=O)N1CC(=O)Nc1cccc(F)c1,–,inactive: 3.24%
CCOC(=O)c1sc(Nc2nc3cc4c(cc3s2)OCO4)cc1C,active: 2.69 µM,–
Cc1ccc(C)c(-c2cc(C(=O)NNC(=S)NCC(C)C)c3ccccc3n2)c1,"inconclusive: 21.3 µM [inhibitor, partial curve, poor fit]",–
COc1ccc(-c2cc(C(=O)NN3CCOCC3)c3ccccc3n2)cc1OC,"inconclusive: 23.9 µM [inhibitor, single point]",–
Cc1ccccc1NC(=O)c1cccc(NC(=O)c2ccco2)c1,"inconclusive: 37.9 µM [inhibitor, partial curve, poor fit]",–
N#Cc1ccsc1NC(=O)CN1C(=O)NC2(CCCC2)C1=O,"inconclusive: 7.57 µM [inhibitor, full curve]",–
COc1cc(/C=C(\C#N)C(=O)Nc2cccnc2)ccc1OC(C)C,"inconclusive: 26.9 µM [inhibitor, single point]",–
Cc1nc(C)c(C(=O)N/N=C/c2cc(Br)ccc2O)s1,"inconclusive: 21.3 µM [inhibitor, partial curve, poor fit]",–
CC(C)NC(=S)NC(=O)/C=C/c1cccc2ccccc12,"inconclusive: 23.9 µM [inhibitor, single point]",–
CC(=O)Nc1ccc(NC(=O)C2(C)CC2(Cl)Cl)cc1 (configuration not stated),–,inactive: -3.67%
Cn1ccc(C(=O)NC(=S)Nc2ccc([N+](=O)[O-])cc2O)n1,active: 12 µM,–
Cc1ccc(O)c(N/C=C/C(=O)c2ccc(F)cc2)c1,active: 2.39 µM,–
Cc1cccn2cc(-c3ccc(S(=O)(=O)N4CCOCC4)cc3)nc12,–,inactive: -0.595%
CSc1ccc(CN(C)CC(=O)NCc2ccccc2)cc1,–,inactive: 1.17%
Cc1ccc(CCSc2ccc(C(C)C)cc2)cn1,"inconclusive: 21.3 µM [inhibitor, single point]",–
O=C(OC1CCCCC1)c1ccc(NC(=O)C2CCCCC2)cc1,"inconclusive: 23.9 µM [inhibitor, partial curve, poor fit]",–
COc1ccc(CN2CCCC(C(=O)Nc3cccc(-n4cccn4)c3)C2)c(F)c1 (configuration not stated),–,inactive: 1.17%
C=CCNC(=S)Nc1cccc(N)c1,–,inactive: -0.464%
O=C(CNS(=O)(=O)c1cccs1)N1CCN(c2ccccc2Cl)CC1,"inconclusive: 19 µM [inhibitor, partial curve, poor fit]",–
O=C(Cn1cc(SCc2cccc(F)c2)c2ccccc21)N1CCCC1,"inconclusive: 33.8 µM [inhibitor, partial curve, poor fit]",–
CC(C)C(NC(N)=O)C(=O)NC1CCCCC1 (configuration not stated),–,inactive: -1.08%
